Results from PubChem BioAssay AID686978 (National Center for Advancing Translational Sciences (NCATS), 2013).
In all, about 420,000 compounds went through this assay and about 64,000 (15%) were called active. Inconclusive means that the source gave no clear call. Such entries were picked first, then a sample of the others. Calls follow the shape of the dose curve; as a rule, active = well fitted inhibition curve with a large enough effect; inconclusive = small, poorly fitted or top-dose-only effect; inactive = flat fitted curve, though single readings scatter. No potency is given beside an inconclusive call; the fits are too rough.

Assay: qHTS for Inhibitors of human tyrosyl-DNA phosphodiesterase 1 (TDP1): qHTS in cells in absence of CPT; also: nearly all actives have a fitted effect of over 55% in size
Details: DT40 Tdp1-/- hTDP1 cells, no CPT, ATP luminescence, 48 h; activity change, negative = growth inhibition: at 46.2 µM (top of the series) unless noted
Method in brief: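 A cellular qHTS used chicken DT40 cells lacking endogenous Tdp1 but carrying stably transfected human TDP1. Compounds were applied without camptothecin, and cell growth kinetics were judged by ATP-dependent luminescence after ≥48 hr.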
% is scaled to controls: 0 for no effect and ±100 for the full control effect; potency is read from the fitted curve at half-maximal effect; tags tell the direction and shape of the fitted curve.

| SMILES | Potency | activity change, negative = growth inhibition |
| --- | --- | --- |
| COC(=O)c1cc2ccccc2n1Cc1ccc(Cl)nc1 | inconclusive [inhibitor, partial curve, poor fit] | – |
| CC(C)c1cccc(-c2csc(C(O)c3ccco3)n2)c1 (stereo not drawn) | inconclusive [inhibitor, single point] | – |
| COc1ccc(C2OC(=O)CC2C(=O)NCc2ccccc2Cl)cc1OC (stereo not drawn) | inconclusive [inhibitor, full curve, poor fit] | – |
| COc1cccc(-c2cncnc2NCc2cccc(C)c2)c1 | active: 23.1 µM | – |
| c1ccc(OCCn2c(-c3ccco3)nc3ccccc32)cc1 | inconclusive [inhibitor, single point] | – |
| COc1ccc(S(=O)(=O)N2CCN(Cc3ccc4c(c3)OCO4)CC2)c2ccccc12 | inconclusive [inhibitor, single point] | – |
| O=[N+]([O-])c1ccc(CNc2cccc(Cl)c2)s1 | inconclusive [inhibitor, single point] | – |
| O=C(c1cc2c(s1)CCCC2)N1CCN(S(=O)(=O)c2ccccc2C(F)(F)F)CC1 | inconclusive [inhibitor, partial curve, poor fit] | – |
| CCOc1ccc(NC(=O)Nc2ccc3nsnc3c2)cc1 | inconclusive [inhibitor, single point] | – |
| Cc1cccc(NC(=O)CCc2nc3sc4c(c3c(=O)[nH]2)CCCC4)n1 | active: 18.4 µM | – |
| COc1ccc(CCC(=O)N2c3ccccc3N=C(c3ccc(C(F)(F)F)cc3)C2C(=O)NC(C)C)cc1 (stereo not drawn) | – | inconclusive: -31.7% [inhibitor] |
| CC(CC(=O)NC1CCSC1=O)c1ccccc1 (stereo not drawn) | – | inactive: -3.81% |
| O=C(NCCOc1ccccc1Cl)C(=O)c1c[nH]c2ccccc12 | inconclusive [inhibitor, single point] | – |
| NC(=O)c1nsc(C(=O)N(CC(=O)NC2CCCC2)c2cccc(C(F)(F)F)c2)c1N | inconclusive [inhibitor, partial curve, poor fit] | – |
| Cc1noc(C)c1COc1cccc(C(=O)Nc2ccc3c(c2)OCO3)c1 | – | inactive: -16.3% |
| COc1ccc(-n2ccnc(NCc3cccs3)c2=O)cc1 | inconclusive [inhibitor, partial curve, poor fit] | – |
| CCOC(=O)Cn1nnnc1CN1CCN(c2ccc(OC)cc2)CC1 | – | inactive: 6.55% |
| CN(C)C(CNC(=O)c1cc(S(=O)(=O)N(C)c2ccc(F)cc2)ccc1Cl)c1ccco1 (stereo not drawn) | active: 7.31 µM | – |
| CCOc1ccc2c(c1)c(=O)c(C(=O)c1ccc3c(c1)OCO3)cn2Cc1cccc(F)c1 | active: 23.1 µM | – |
| C=CCn1c(SCC(=O)NCCOC)nnc1-c1cc2c(s1)CCC(CC)C2 (stereo not drawn) | active: 18.4 µM | – |
| O=C(N=C1SC2CS(=O)(=O)CC2N1c1ccc(Br)cc1)C1CCCO1 (stereo not drawn) | – | inactive: 39% |
| O=C(Nc1cccc(O)c1)C(=O)Nc1ccccn1 | – | inactive: -24.1% |
| COc1ccc(NC(=O)C2(C)CCN2C(=O)c2ccccc2CCc2ccccc2)cc1OC (stereo not drawn) | active: 9.2 µM | – |
| CC(O)(c1ccc(F)c(F)c1)c1nc(-c2cccc3cccnc23)cs1 (stereo not drawn) | – | inactive: -20.9% |
| COC(=O)[C@@]12C[C@@H](CC(=O)NCCCCc3ccccc3)C(=O)N(CCc3ccc(OC)c(OC)c3)C1=CCC(C)(C)C2 | active: 20.6 µM | – |

| SMILES | Potency | activity change, negative = growth inhibition |
| --- | --- | --- |
| CC(C)C(=O)N1CCC(c2nc(-c3ccc(S(=O)(=O)N4CCCC4)cc3)no2)CC1 | inconclusive [inhibitor, partial curve] | – |
| Cc1ccc(C(=O)N2CCN(c3ccc([N+](=O)[O-])c(NCc4ccco4)c3)CC2)cc1 | active: 16.4 µM | – |
| O=C(CCCCCCCCC(=O)N1CCCCC1)N1CCCCC1 | inconclusive [inhibitor, partial curve] | – |
| COc1ccc(-c2ocnc2C(=O)Nc2ccccc2N2CCCCC2)cc1 | inconclusive [inhibitor, single point] | – |
| COc1ccccc1OCC(=O)NCC1CCCN(C(=O)c2cccc(C)c2)C1 (stereo not drawn) | – | inconclusive: -31.3% [inhibitor] |
| CCOc1ccc(-c2nnc(SCC(=O)Oc3ccccc3)o2)cc1 | – | inactive: -4.73% |
| COCCC(=O)N1CCC(Oc2ccc(C(=O)NC(C)CCn3cccn3)cc2)CC1 (stereo not drawn) | – | inactive: -9.27% |
| CCCCN1C(=N)N([C@@H](C)CN2CCC[C@H]2CN2C(N)=NC[C@@H]2Cc2ccccc2)C[C@H]1Cc1ccccc1 | inconclusive [inhibitor, single point] | – |
| CC(C)c1ccc(-c2nc3c([nH]2)c(=O)n(C)c(=O)n3C)cc1 | – | inactive: 3.81% |
| CC1CCCN(c2nc(-c3ccccc3O)nc3ccccc23)C1 (stereo not drawn) | inconclusive [inhibitor, single point] | – |
| CSc1ccc(NC(=O)NCCCN2CCN(c3ccccc3F)CC2)cc1 | active: 20.6 µM | – |
| CCOC(=O)C1=C(c2ccccc2)NC(=O)NC1c1cc(OC)c(O)c([N+](=O)[O-])c1 (stereo not drawn) | inconclusive [inhibitor, single point] | – |
| O=c1c2c3c(sc2nnn1Cc1ccc(F)cc1)CCCC3 | inconclusive [inhibitor, partial curve] | – |
| O=C(NCC(O)c1nc2ccccc2[nH]1)c1cc([N+](=O)[O-])ccc1F (stereo not drawn) | inconclusive [inhibitor, single point] | – |
| O=C(Nc1cnn(Cc2ccc(Cl)cc2)c1)c1cccs1 | active: 8.2 µM | – |
| O=C(/C=C/[C@H]1O[C@@H](n2cnc3c(NC(=O)c4ccccc4)ncnc32)[C@H](O)[C@@H]1O)NCC1CCCO1 (stereo partly drawn) | – | inactive: 2.75% |
| CCCCNC(=O)c1cc2c(=O)n(CC)c3ccccc3c2s1 | active: 23.1 µM | – |
| Cc1cc(C)c2c(N)c(C(=O)NN3CC(=O)N(c4cccc(Cl)c4)CC3=O)sc2n1 | – | inactive: -26.3% |
| Cc1scc(C(=O)NNC(=S)NCC2CCCO2)c1-c1ccccc1 (stereo not drawn) | inconclusive [inhibitor, partial curve] | – |
| CCOc1ccc(NC(=S)NC(C)c2cccs2)cc1 (stereo not drawn) | inconclusive [inhibitor, single point] | – |
| CCOC(=O)c1cnc2c(c(C)nn2C)c1Oc1cc(Cl)cc(Cl)c1 | inconclusive [inhibitor, single point] | – |
| CCOC(=O)[C@H]1[C@H]2COc3ccc(Br)cc3[C@H]2N2C(=O)CN(Cc3ccc(Cl)cc3)C(=O)[C@@]12C | active: 23.1 µM | – |
| Cn1c(=O)[nH]c(=O)c2c1nc(Sc1nc3ccccc3s1)n2Cc1ccccc1 | active: 6.51 µM | – |
| NNC(=O)Cn1c(-c2ccccc2)cc2ccccc21 | inconclusive [inhibitor, single point] | – |
| CCOC(=O)c1cc(-c2ccc(OC)c(S(=O)(=O)NC3CCCCC3)c2)on1 | – | inactive: -18.2% |

| SMILES | Potency | activity change, negative = growth inhibition |
| --- | --- | --- |
| O=c1cc(CN2CCN(c3ccccc3F)CC2)c2c(ccc3ccccc32)o1 | active: 18.4 µM | – |
| COc1c(O)cc2c(c1O)C1OC(CO)C(O)C(O)C1OC2=O (stereo not drawn) | – | inactive: 19.8% |
| O=C(Cc1ccc(Cl)cc1)Oc1cccc2cccnc12 | active: 0.82 µM | – |
| O=C(c1cc(-c2cccc(Cl)c2)nc2ccccc12)N1CCN(c2ccccn2)CC1 | inconclusive [inhibitor, partial curve] | – |
| COc1ccccc1N(CC(=O)N1CCC(C)CC1)S(=O)(=O)c1ccc(C)cc1 | inconclusive [inhibitor, single point] | – |
| Cc1cc(NC(=O)CCN2C(=O)C3C4CCC(C4)C3C2=O)c(C)cc1Br (stereo not drawn) | inconclusive [inhibitor, partial curve] | – |
| Cc1cccc(-n2c(C)c(C)c3c(N)ncnc32)c1 | – | inactive: -18.8% |
| Cc1ccccc1-n1c(SCC(=O)c2cc(C)n(C)c2C)nnc1-c1cccnc1 | inconclusive [inhibitor, partial curve] | – |
| Cc1cccc(/C=C/c2nc3ccccc3c(=O)n2Cc2ccccc2)c1 | inconclusive [inhibitor, single point] | – |
| COc1cccc(/C=C2/SC(=S)N(CC(=O)Nc3nccs3)C2=O)c1 | – | inactive: -3.25% |
| COC(=O)c1ccc(NC(=O)C2CCN(C(=O)c3cc(OC)c(OC)c(OC)c3)CC2)cc1 | inconclusive [inhibitor, single point] | – |
| CCN(C(=O)Cn1nc(Cc2ccncc2)c2ccccc2c1=O)c1cccc(Cl)c1 | active: 20.6 µM | – |
| COc1ccc(/C=C/C(=O)c2ccoc2)cc1 | inconclusive [inhibitor, partial curve] | – |
| CC(C)C(=O)OC1CCS(=O)(=O)c2sccc21 (stereo not drawn) | – | inactive: -2.64% |
| COc1ccc(/C=N/Nc2nc(-c3cccc(S(=O)(=O)N4CCCC4)c3)cs2)c(OC)c1 | inconclusive [inhibitor, single point] | – |
| COc1ccc(CNC(=O)C(C)N(Cc2ccccc2OC)C(=O)c2snc(C(N)=O)c2N)cc1 (stereo not drawn) | inconclusive [inhibitor, single point] | – |
| Cc1ccc(-c2nc(SC(C)C(=O)c3c(N)n(C)c(=O)n(C)c3=O)n[nH]2)cc1 (stereo not drawn) | active: 23.1 µM | – |
| CCOc1ccc(NC(=O)COC(=O)c2ncc(Cl)c(Cl)c2Cl)cc1 | – | inactive: 2.23% |
| Cc1cccc(Nc2nn3c(=O)c4cc5c(cc4nc3s2)OCO5)c1 | – | inactive: 1.84% |
| Cc1ccc(C(=O)Nc2ccc3ncccc3c2)cc1 | inconclusive [inhibitor, partial curve, poor fit] | – |
| O=C(O)CCCCCNC(=O)c1ccc(Br)cc1 | – | inactive: -4.76% |
| O=C(Nc1ccc2nc3n(c(=O)c2c1)CCCCC3)C(=O)Nc1ccccc1F | inconclusive [inhibitor, single point] | – |
| CC(C)c1ccc(/C=c2\sc3n(c2=O)C(N)=C(C#N)C(c2ccc(C(C)C)cc2)C=3C(N)=O)cc1 (stereo not drawn) | active: 7.31 µM | – |
